In all, about 4,500 sequences were measured (“median log2 fold change of GCK-ALFA target abundance (FLAG IP / Myc IP barcode read proportion)”: median about 0.078, lowest 2% from about -0.6 on). The list shows a part of the results.
B1: GBRAP_128_3509 (protein)
chain: SMEEAVARTRELMAAIAEADAEEAAALTAELVELMASVDDETAEAMADVAEELLPKLSKEKLDVVADTLEALRPTVDPYKANLLAGIAVAALNEAEELEE
B2: GBRAP_125_3145 (protein)
chain: KREAVLALARALAEALGFSEEEIAEIEELAEASDPEQTVVAILLAAGFEEAAEVAAKVLPKLTEEEIEELKALAEELKDAPLEEVKAAILAKLEELLAKL
B3: GBRAP_160_4610 (protein)
chain: SEKKKEFKKEVEEEFEEAKEMIEGESIEQRANIVDVTIGEIIIEADELEVVSDESLDKIDEIRDEVVSTILANPDLTDEEIKALIEEAREKILKIIEEDE
B4: GBRAP_74_6534 (protein)
chain: SDELVAAIVEAIRAGRVDEAVALLEEAIATEDEEEKVRALLAAARAVVEHRDRLTPEQILRLADALVRLRDSIDDELLTDEAWDAFAAVLAAALAAEQAR
B5: GBRAP_79_6747 (protein)
chain: GVEEARRALVEALRVVLPDLTEEEAAEAVASDEALRAALLRAGISEEMAAELLEAIDAIPELAAERFRRTVERMEGLEPEDRRDVLEATIAAVIYEAEQR
B6: GBRAP_125_3045 (protein)
chain: GLEALVAALAALARRLGFSEEEVEEIARLAREHGVKGTLIAILLALGEEELAELAAKLTDEQVAEVLRALAAWLEAHPDASREEVLARLRELLEAALAKQ
B7: GBRAP_160_4231 (protein)
chain: SEVVERIVEITREELEEALELIAGESPEERAVILAVTVGRILLEVDEIEEATDEMEEVVDEEVERAAERLLAAADASPEELRALVEEAVRRLRERLEEVE
B8: GBRAP_11_2796 (protein)
chain: KKEKLEELAKELKKAAEALDALIKAGPGDKEGWKKAEELLEKAEKLAKEAGDEDTAELLEIAKEDLKKAKADPANRQQYLNNALAAVRVAEGLTLLKIEE
B9: GBRAP_14_3797 (protein)
chain: MEERKKKINEIAEETIEIVEEILEEAPEEVKEKVLELIEEARDKIIEENLNSDEAAELADELVEEVEKILEEAPEEVKAEVLAAVAVLGGEIILEIEELE
B10: GBRAP_160_4059 (protein)
chain: EESKEELLESVEEARELILETLDEEGVEAALVVAAGEFGAVIMEASEDEDADEELEDRLAEIRDDLLARLKAAKDASKEEQKKIVEEAAERAKEAIEELY
B11: GBRAP_14_3819 (protein)
chain: LEELKAEIKKILDELEKELVEDLGLDEEEVTKLVEKALEEIFKALEEGENPEEKIEEIFEKLEKEVVKLAAKLGADTAAAARALVTDAKYEVLELIEKHS
B12: GBRAP_83_6912 (protein)
chain: KEKVAVATTGDNIEEAVDAVIDLTKEEGYEVSLEILSTKEDKEKILKAVERLAKAGIETEVTILLFGATEEEAKELEKELKEIAKKYGVNIKIEVILIEE
B13: GBRAP_52_6165 (protein)
chain: AAARAKALAEELVAAVKAGDEERVEEILEEAARTMDDEELALFLDALAAAVAGLTPEEKERVVEAAIRFEDIAVEAGHDEELLSYHVARVAGAAYDALQA
B14: GBRAP_42_5724 (protein)
chain: MYLVDLEVYVETLEELEEADKIVEEKNEEYEKKYGIIIRLEVTAPEEIEEKAKEINEKFEEIAKKATKEHDWVFVASSAKEVEKAIEAGVDEALEEIKEE
B15: GBRAP_184_5254 (protein)
chain: STLERVIEAENVEELRKKMAEIREEALASGADVLLTLEVKELTKEMIEALAEEIKKLREEGYTGKVTVGITALLSEEMVDYAIELFDEAGAQVVLALPEE
B16: GBRAP_52_5891 (protein)
chain: KLEEAVEKLKKAVEAMKAGDKEEAEKILKEIVENFDEETILAAVEKLAEEMETKSLEDAEAFYETALLLAEIILEAGGSEEIASYIEAIAGGTLYKISQK
B17: GBRAP_52_6078 (protein)
chain: MEEEIEKIAEEIVEAIEAGDKEKALKIIEEAIKKLSVEEIKKMLELAAKKVAELGEEKHELFVDVLDEAEELLLKAGISEEDALLIVGAAEAALAKAVAA
B18: GBRAP_128_3188 (protein)
chain: SVEEVKAYTAEAMDKIKNSDKETARKIAEELMERLKTWSLEEVEAAVEVVLEKLPELSAEHLEILADVSREKLPEFTPEKANLVAEVEVEALNLLEELEE
B19: GBRAP_128_3183 (protein)
chain: SMEEVRARTREAMEAIRNSSPEEARRIATELMEWMLTLSLEEVEAAAEVILEMLPELSAEKLEILADVMRELRPRFSPEKAEIVAGVEVEALNEAEELEE
B20: GBRAP_52_5883 (protein)
chain: SLEEAIKLLKEMVKAVKEGKKEEAEKIAKKIVKEFSDETILEAVKELAKEVLEKSLEEAEAFFEAAELLADVLIEEGGDENIASEIEAIAGAALYEVEQK
B21: GBRAP_184_5112 (protein)
chain: MTLERTIKVENLEEAKEKLTKVVNEAKAKKADLLVIVEVPNLTPELAQVIMDQAAAAKAAGIKNVLVEIVSDNLSEEVRDTIYEKADKYGLTNVVLAEEE
B22: GBRAP_11_2705 (protein)
chain: KKEKLKEGAELAKKAAELIKQLLEKGVDDQELLKQLEETIKKLKELTEKYGDESHKKLAEIAEELFKKALEDPENAEQYLQELLATLRVLEGQYLLDIEE
B23: GBRAP_80_6818 (protein)
chain: MEEEIEAYLKEIEKIDKELAKIVKEAVEIAKELGVPLKEIARLVKALAELAKLDLEKAKKLAEELLKKLKEAKEKGDKEYALAEVVDATSEALLEVEELE
B24: GBRAP_160_4722 (protein)
chain: SEKIKEFVKEAREELLKAVEDSEGESRENARALFEGAAGEILMDAFENPFFTDEMEDVVDEILDKLVEELVANYDASLEEKKAIVEKYMEELEKKLLEIA
B25: GBRAP_128_3437 (protein)
chain: AQEELLQEALELLDEIVESDVETAAELAKQLAELLGQLDEESRDEVVEYFEEKAKELTEEKLEAVADALREQVPQLDADTANAVNEMIVILGEQILELEE
B26: GBRAP_95_7039 (protein)
chain: DDDVLLAESLAEVLETAVDLGDLERARRLARELLEALLRLPPDAVRLDLSPEAVELIIRVARETLPRERAIEALEKLAAALTDPEARALAEAALAELRAE
B27: GBRAP_125_2967 (protein)
chain: ATEQDLADLRTLALALGLSEEEAEEAAELARASSIRGTLYAIFAGLGYEELAELVAEITEEDARAVLRATAAYIAAHPDATPDEVVAHATALAKEALAAR
B28: GBRAP_11_2879 (protein)
chain: KKEKLLEIAKLAEELAELIEELLEKGVDDEELREEAEKKLKELTELVEKHANEALKKLAEILKEEWQKALEDEENAEKYLQEALTIARVLSGDALLEAEE
B29: GBRAP_160_4574 (protein)
chain: SEEMKKLKEEIKEITEEAKEFIEGQSREEQIAIVKVAMGDILLLLDENPLVSDETEDKAAAIGDALIAYIEAHPDLTAEEIKELLEKATEEIIKLIEKEE

The binders below were run against GABARAP, O95166 (assay: median log2 fold change of GCK-ALFA target abundance (FLAG IP / Myc IP barcode read proportion) (log2 ratio); each designed protein is fused to an ALFA-tag nanobody in HEK293 cells to bring the named protein to FLAG-tagged glucokinase (GCK); Myc marks an untargeted standard; higher = target protein stabilised (more abundant)). Conditions: target protein: 3xFLAG-MCP-GCK-ALFA reporter; HEK293 landing pad (RPLP).
Procedure, shortened: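 The readout is target abundance, the per-binder median log2 ratio of FLAG to Myc barcode read proportions. It came from HEK293 landing-pad cells carrying a recombined ALFA-nanobody-fused binder library, induced with 2 μg mL^−1 doxycycline and transfected with a plasmid for a FLAG-tagged target and a Myc-tagged standard. After 48 h, lysates were immunoprecipitated with anti-FLAG and anti-Myc, and circular RNA barcodes were reverse transcribed, amplified and sequenced. Each barcode needed a proportion of at least 10^−7 in both replicates and each binder at least 3 barcodes per replicate, a pseudocount of 10^−6 was added, and the replicates were pooled.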

Chain of GABARAP, O95166 (O95166 whole entry, the tested form may be a part): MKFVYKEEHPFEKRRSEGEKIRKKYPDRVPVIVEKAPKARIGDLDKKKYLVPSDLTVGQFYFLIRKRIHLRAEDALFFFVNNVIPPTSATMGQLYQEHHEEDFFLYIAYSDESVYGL

Row | Binder | median log2 fold change
1 | B1 | 0.172
2 | B2 | 0.0148
3 | B3 | -0.247
4 | B4 | 0.00205
5 | B5 | 0.209
6 | B6 | -0.33
7 | B7 | -0.25
8 | B8 | 0.0688
9 | B9 | -0.167
10 | B10 | 0.0274
11 | B11 | 0.361
12 | B12 | -0.0598
13 | B13 | 0.0686
14 | B14 | -0.157
15 | B15 | 0.0348
16 | B16 | 0.421
17 | B17 | -0.254
18 | B18 | -0.0272
19 | B19 | 0.186
20 | B20 | 0.0979
21 | B21 | 0.114
22 | B22 | 0.367
23 | B23 | 0.0801
24 | B24 | -0.454
25 | B25 | -0.0498
26 | B26 | 0.261
27 | B27 | -0.219
28 | B28 | 0.335
29 | B29 | -0.302

Source: the supplement of paper PMC12632987
